According to patent publication US20020037832A1, “Use of alpha-MSH and EPO for preventing or treating ischemic conditions” (priority 2000, published 2002):

System: splanchnic artery occlusion shocked rats
Experiment: Splanchnic artery occlusion shock (SAO-shock): 45 minutes clamping of coeliac trunk and superior mesenteric artery, four hours reperfusion
Conditions: α-MSH 200 μg/kg or rh-EPO 200 IU/kg i.v.

Substance | rats alive at the end of the 4 hour follow up period
α-melanocyte stimulating hormone [α-MSH] | 80%
epoetin alfa [rh-EPO, reference compound] | 80%
